# In PubChem BioAssay AID686978 (National Center for Advancing Translational Sciences (NCATS), 2013):
# Screen size: about 420,000 compounds; about 64,000 (15%) were called active. The shares of active, inactive and inconclusive entries below differ from those in the screen. The call rests on the fitted dose curve; in most records, active means well fitted inhibition curve with a large enough effect; inconclusive means small, poorly fitted or top-dose-only effect; inactive means flat fitted curve, though single readings scatter. Potencies of inconclusive entries are left out as doubtful fits.
# Assay: qHTS for Inhibitors of human tyrosyl-DNA phosphodiesterase 1 (TDP1): qHTS in cells in absence of CPT; further: nearly all actives have a fitted effect of over 55% in size
# Conditions: DT40 Tdp1-/- hTDP1 cells, no CPT, ATP luminescence, 48 h; activity change, negative = growth inhibition: at 46.2 µM (top of the series) unless noted
# Procedure, shortened: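 Chicken DT40 Tdp1-/- cells stably complemented with human TDP1 were seeded at 400 cells/well with DMSO in place of 20 nM camptothecin. After compound pinning, cells grew at least 48 hr at 37 °C; viability read by CellTiter-Glo luminescence.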
# On the % scale 0 is the no-effect control and ±100 the full control effect; potency means the concentration at half of the fitted maximal effect; tags describe the fitted curve by direction and shape.
SMILES,Potency,"activity change, negative = growth inhibition"
COc1cc(NC(=O)c2cccs2)c(C(=O)OCC(=O)NCc2ccco2)cc1OC,"inconclusive [inhibitor, partial curve, poor fit]",
Cc1ccc(C(NC(=O)N2CCCC2)C(Cl)Cl)cc1F (stereo unspecified),"inconclusive [inhibitor, single point]",
C=COCCNC(=S)Nc1cccc(Cl)c1,"inconclusive [inhibitor, single point]",
COc1cc(NC(=O)c2noc3c2CCc2ccccc2-3)cc(OC)c1OC,active: 16.4 µM,
Cc1nn(-c2ccc3nncn3n2)c(C)c1CCC(=O)Nc1ccc(OC(F)(F)F)cc1,"inconclusive [inhibitor, single point]",
CSCCC(NC(=O)COc1ccccc1)C(=O)OCCOc1ccc(C)cc1 (stereo unspecified),inactive,
Cc1ccc(-n2cccn2)c(CN2CCCC(C(=O)c3sccc3C)C2)c1 (stereo unspecified),active: 23.1 µM,
O=C(c1ccccc1)c1cnc(Nc2ccc(Cl)c(Cl)c2)s1,"inconclusive [inhibitor, single point]",
COc1ccccc1CNC(=O)CSC1=NCCS1,"inconclusive [inhibitor, single point]",
COc1cc(C(=O)NCC(c2cccnc2)N2CCN(c3ccc(F)cc3)CC2)cc(OC)c1OC (stereo unspecified),active: 20.6 µM,
Cc1cccc(-c2nc3c(C#N)c[nH]n3c2NC2CCCCC2)c1,active: 20.6 µM,
CCn1c(SCc2ccc(C(=O)Nc3cc(C)cc(C)c3)cc2)nnc1-c1ccncc1,"inconclusive [inhibitor, single point]",
c1ccc(-n2cnc3cc(NCc4ccco4)ccc32)cc1,"inconclusive [inhibitor, single point]",
COc1ccc(CCNC(=O)c2ccco2)cc1,inactive,
COc1ccc(CN(C)CC(=O)Nc2sc3c(c2C#N)CCC3)cc1OC,"inconclusive [inhibitor, partial curve]",
COc1ccc(NC(=O)c2ccc(Cn3cc(Cl)cn3)cc2)cc1,,inconclusive: -37% [inhibitor]
COc1ccccc1CNC(=O)CC(NS(=O)(=O)c1ccc(C)cc1)c1ccco1 (stereo unspecified),"inconclusive [inhibitor, partial curve, poor fit]",
CN(N=Nc1ccc([N+](=O)[O-])cc1)c1ccccc1,inactive,
C#CCOCCOCCOCCNc1nc(N2CCN(C(=O)[C@H](CCC(=O)O)n3cc(C(N)CC(C)C)nn3)CC2)nc(N2CCN(C(=O)[C@H](CCC(=O)O)n3cc(C(N)CC(C)C)nn3)CC2)n1 (stereo partly specified),inactive,
COc1cc(/C=C2\C(=O)ON=C2c2ccccc2)cc(OC)c1OC,active: 16.4 µM,
Cc1ccccc1CNC(=O)c1ccc(-n2c(C)cc3c2CCCC3)cc1,"inconclusive [inhibitor, single point]",
COc1ccc(C(=O)N2CCc3ccccc32)cc1S(=O)(=O)N1CCOCC1,"inconclusive [inhibitor, single point]",
Cc1ccc(C)c(Cn2nc3c4ccccc4n(Cc4ccccc4)cc-3c2=O)c1,"inconclusive [inhibitor, partial curve]",
COc1ccccc1CNC(=O)C1CCN(Cc2nc(-c3ccc(OC)c(OC)c3)oc2C)CC1,"inconclusive [inhibitor, partial curve]",

SMILES,Potency,"activity change, negative = growth inhibition"
COc1ccc2c(COC(=O)[C@@H]3CCCN3S(=O)(=O)c3ccc(Cl)cc3)cc(=O)oc2c1,inactive,
CCOc1ccc(C(=S)NC2CCCCC2)cc1OC,"inconclusive [inhibitor, partial curve]",
CCn1cc(C(=O)NCC2COc3ccccc3O2)c2cc(OC)c(OC)cc2c1=O (stereo unspecified),"inconclusive [inhibitor, single point]",
COc1ccc(CNc2nc3c(c(=O)n(Cc4ccc(Cl)cc4)c(=O)n3C)n2C)cc1,active: 23.1 µM,
Clc1ccccc1Cn1nnc(-c2cccs2)n1,"inconclusive [inhibitor, full curve, poor fit]",
Cc1ccc(NC(=O)CNC(=O)C2CCCCC2)nc1,inactive,
Cc1ccc(-c2csc(NC(=O)c3ccc(F)cc3)c2C(=O)O)cc1,"inconclusive [inhibitor, single point]",
COc1ccc(N2CCN(CCCn3cnc4c(OC)ncnc43)CC2)cc1,inactive,
O=[N+]([O-])c1ccccc1CN1CCN(Cc2ccc3ccccc3c2)CC1,inactive,
CC(C)CN(C(=O)COC(=O)CSc1ccc([N+](=O)[O-])cc1)C1CCS(=O)(=O)C1 (stereo unspecified),inactive,
CCN(CC)CCn1c(SCC(=O)NCc2ccccc2)nc2c(sc3ccccc32)c1=O,"inconclusive [inhibitor, single point]",
CC(C)(C)c1ccc(CC(=O)N2CCC2(C)C(=O)NS(=O)(=O)c2ccc(Cl)cc2)cc1 (stereo unspecified),inactive,
Cc1ccc(S(=O)(=O)NCCc2cc3ccc(C)c(C)c3[nH]c2=O)cc1,active: 18.4 µM,
Cc1occc1C(=O)Nc1cccc(Cn2cccn2)c1,inactive,
O=C(CNC(=O)c1cccc(-n2cnnn2)c1)Nc1ccc(F)c(F)c1,inactive,
CCOC(=O)[C@H]1[C@H]2COc3ccc(C)cc3[C@@H]2N2C(=O)CN(Cc3ccc(Cl)cc3)C(=O)[C@@]12C,inactive,
c1ccc(CCn2nnnc2CN2CCCc3ccccc32)cc1,"inconclusive [inhibitor, single point]",
Cc1c(C(=O)OCc2ccc(F)cc2)sc2nc3n(c(=O)c12)CCC3,"inconclusive [inhibitor, single point]",
CCOC(=O)C1=C(CSc2nc(CC)c(C)cc2C#N)OC(N)=C(C#N)C1c1ccc(OC)cc1 (stereo unspecified),active: 16.4 µM,
CN(C)CCCN(C(=O)/C=C/c1cccs1)c1nc2c(F)cccc2s1,active: 20.6 µM,
CCOc1ccc(C(=O)N[C@H](C(=O)Nc2ccccc2OC)C(C)C)cc1,"inconclusive [inhibitor, single point]",
CCCN(C(=O)c1cc2c(Cl)nc3ccccc3c2s1)c1cccc(C)c1,active: 25.9 µM,
Oc1ccc(-c2nncn2-c2ccccc2)cc1,inactive,
Fc1ccccc1OCCn1c(=S)[nH]c2ccccc21,inactive,

SMILES,Potency,"activity change, negative = growth inhibition"
CC(C)(C)c1ccc(Oc2ncccc2NC(=O)c2cccs2)cc1,"inconclusive [inhibitor, partial curve, poor fit]",
COc1ccc(Cc2c(-c3cccc(Cl)c3)nc3ccc(Cl)cn23)c(C)c1,"inconclusive [inhibitor, single point]",
CCCN(CCC)C(=O)Cn1c(=O)n(Cc2ccc(C(=O)NCCc3ccc(OC)c(OC)c3)cc2)c(=O)c2ccccc21,"inconclusive [inhibitor, full curve, poor fit]",
c1ccc(Cn2c(CNc3nc4ccccc4n3CCN3CCCCC3)nc3ccccc32)cc1,"inconclusive [inhibitor, single point]",
COc1ccc(C(C)(C)NC(=O)C2CCC(=O)N(C3CCCC3)C2)cc1OC (stereo unspecified),inactive,
CCCCN(C(=O)c1ccc(-c2ccc(Cl)cc2)o1)c1c(N)n(CC(C)C)c(=O)[nH]c1=O,"inconclusive [inhibitor, single point]",
Cc1ccc2c(c1)cc(CN(Cc1cccs1)C(=O)c1ccco1)c1nnnn12,active: 16.4 µM,
CS(=O)(=O)c1ccc(Cl)c(NC(=O)COC(=O)c2ccc(F)cc2Cl)c1,inactive,
CCOc1cc(CNc2ccc(O)cc2)cc(Br)c1OCc1ccccc1,active: 16.4 µM,
O=C(NC1=C(Nc2ccc(Cl)cc2)C(=O)c2ccccc2C1=O)c1ccccc1,active: 16.4 µM,
COc1ccc(-c2cc3nc(C4CCN(C(=O)OC(C)(C)C)CC4)c(C(=O)Nc4cc(Cl)cc(Cl)c4)cn3n2)cc1,"inconclusive [inhibitor, single point]",
C[C@H]1CN([C@@H](C)CO)C(=O)c2cc(NC(=O)C3CCCCC3)ccc2O[C@H]1CN(C)C(=O)Nc1ccc2c(c1)OCO2,"inconclusive [inhibitor, single point]",
COc1ccc(CNC(=O)c2ccc3c(c2)N(Cc2ccccc2)C(=O)c2ccccc2S3(=O)=O)cc1,inactive,
Cc1ccc(N(Cc2ccccc2)C(=O)c2ccc(C)c(S(=O)(=O)N3CCOCC3)c2)cc1,"inconclusive [inhibitor, single point]",
O=C(c1cnccn1)N1CCN(S(=O)(=O)c2ccc3ccccc3c2)CC1,"inconclusive [inhibitor, single point]",
CCOc1ccccc1N(C)C(=O)c1nn(-c2ccc(C)cc2)c(=O)c2c1c1ccccc1n2C,inactive,
O=c1c(-c2ccccc2)nc2cnc(N3CCNCC3)nc2n1C1CC1,"inconclusive [inhibitor, single point]",
COc1ccc(NC(=O)CN2C(=O)NC(C)(C3CC3)C2=O)cc1S(=O)(=O)N1CCOCC1 (stereo unspecified),inactive,
CCOC(=O)N/N=C/c1ccc(N(CC)CC)cc1O,active: 5.8 µM,
CCC(C)c1ccccc1OCC(=O)NN1C(=O)c2ccccc2C1=O (stereo unspecified),inactive,
NC(=O)CSc1nc2c(c(=O)n1-c1ccccc1)C1(CCCCC1)Cc1ccccc1-2,"inconclusive [inhibitor, single point]",
O=C(C#Cc1ccccc1)NCc1ccccc1F,"inconclusive [inhibitor, single point]",
CNC(=O)C(=O)Nc1c(O)c2ccccc2[nH]c1=O,,inconclusive: -37.6% [inhibitor]
